# In the antibiotic and cytotoxicity screens of Wong et al. (2023):
# The list shows a part of the results.
# What was measured:
# HSkMC = human skeletal muscle cells; test: cytotoxicity call (relative viability < 0.9); settings: 10 µM
# HepG2 = test: cytotoxicity call (relative viability < 0.9); settings: 10 µM
# S. aureus RN4220 = test: growth inhibition call (relative growth <= 0.2); settings: 50 µM
SMILES,cytotoxicity call (HSkMC),cytotoxicity call (HepG2),growth inhibition call (S. aureus RN4220)
COc1cccc(NC(=O)N(C)C[C@@H]2Oc3cc(C#Cc4ccncc4)ccc3S(=O)(=O)N([C@H](C)CO)C[C@H]2C)c1,inactive,active,inactive
C[C@H](CO)N1C[C@H](C)[C@@H](CN(C)Cc2ccncc2)OCCCC[C@H](C)Oc2ccc(NC(=O)C3CCCCC3)cc2C1=O,inactive,inactive,inactive
C[C@@H]1CCCCO[C@H](CN(C)Cc2ccccc2)[C@@H](C)CN([C@@H](C)CO)C(=O)c2cc(NC(=O)NC3CCCCC3)ccc2O1,inactive,active,inactive
C[C@@H]1CN([C@@H](C)CO)C(=O)c2cc(NC(=O)Nc3ccc(C(F)(F)F)cc3)ccc2O[C@@H](C)CCCCO[C@@H]1CN(C)C(=O)NC1CCCCC1,inactive,inactive,inactive
C[C@@H]1CCCCO[C@H](CN(C)C(=O)Nc2ccc(C(F)(F)F)cc2)[C@@H](C)CN([C@H](C)CO)C(=O)c2cc(NC(=O)Nc3ccc(F)cc3)ccc2O1,inactive,active,inactive
C[C@H]1CN([C@@H](C)CO)C(=O)c2cccc(NC(=O)CCCCCC(=O)Nc3ccccc3N)c2O[C@H]1CN(C)Cc1ccc(C(F)(F)F)cc1,inactive,inactive,inactive
CC[C@@H](Nc1n[nH]c(=O)[nH]c1=O)C(=O)OC,inactive,inactive,inactive
COc1ccc(CN(C)C[C@H]2OCCCC[C@H](C)Oc3ccc(NC(=O)C4CCCCC4)cc3C(=O)N([C@@H](C)CO)C[C@@H]2C)cc1,inactive,inactive,inactive
O=c1nc(NCc2ccco2)cc[nH]1,inactive,inactive,inactive
C[C@@H]1CN([C@@H](C)CO)C(=O)c2cc(NC(=O)C3CC3)ccc2O[C@H]1CN(C)S(=O)(=O)c1ccccc1,inactive,inactive,inactive
O=C(Nc1ccc2c(c1)[C@H]1C[C@@H](CC(=O)N3CCc4ccccc4C3)O[C@H](CO)[C@H]1O2)C1CCOCC1,inactive,inactive,inactive
COC1(NC(=O)C2SC(=C(C(N)=O)C(=O)O)S2)C(=O)N2C(C(=O)O)=C(CSc3nnnn3C)CSC21 (stereo not given),inactive,inactive,active
COc1ccc(NC(=O)Nc2cccc3c2O[C@@H](CN(C)Cc2ccc(Oc4ccccc4)cc2)[C@H](C)CN([C@H](C)CO)C3=O)cc1,inactive,inactive,inactive
Cc1noc(C)c1NC(=O)Nc1ccc2c(c1)C(=O)N([C@@H](C)CO)C[C@@H](C)[C@@H](CN(C)Cc1ccc(C(F)(F)F)cc1)OCCCC[C@H](C)O2,inactive,inactive,inactive
Cc1cccc(NC(=O)C(C)C)c1,inactive,inactive,inactive
Cc1nnc(=O)[nH]c1NNc1ccccc1,inactive,inactive,inactive
CC(C)NC(=O)N(C)C[C@@H]1Oc2ccc(NS(=O)(=O)c3cccs3)cc2C(=O)N([C@H](C)CO)C[C@@H]1C,inactive,inactive,inactive
Cc1noc(C)c1S(=O)(=O)N(C)C[C@H]1Oc2c(NC(=O)C3CCOCC3)cccc2C(=O)N([C@H](C)CO)C[C@H]1C,inactive,inactive,inactive
C[C@@H]1CN([C@@H](C)CO)C(=O)c2cccc(NC(=O)C3CCOCC3)c2O[C@@H]1CN(C)Cc1ccccc1,inactive,inactive,inactive
CC(C)NC(=O)N(C)C[C@@H]1Oc2cc(C#Cc3cccc(F)c3)ccc2S(=O)(=O)N([C@H](C)CO)C[C@@H]1C,inactive,inactive,inactive
C[C@H](CO)N1C[C@H](C)[C@H](CN(C)C(=O)Nc2ccc3c(c2)OCO3)OCCCC[C@H](C)Oc2ccc(NC(=O)Nc3ccc(F)cc3)cc2C1=O,inactive,inactive,inactive
C[C@@H]1CN([C@@H](C)CO)C(=O)CCCn2cc(nn2)CO[C@H]1CN(C)C(=O)Nc1cccc(C(F)(F)F)c1,inactive,inactive,inactive
Cc1ccc(S(=O)(=O)N(C)C[C@@H]2Oc3ccc(NC(=O)Nc4cccc5ccccc45)cc3CC(=O)N([C@@H](C)CO)C[C@H]2C)cc1,inactive,inactive,inactive
C[C@@H]1CN([C@H](C)CO)C(=O)c2cc(NC(=O)CCCN(C)C)ccc2O[C@H]1CN(C)Cc1ccc(C(=O)O)cc1,inactive,inactive,inactive
CCC(=O)N(C)C[C@H]1Oc2ncc(C#C[C@@H](C)O)cc2C(=O)N([C@@H](C)CO)C[C@@H]1C,inactive,inactive,inactive
O=C(CCc1ccc(O)cc1)c1c(O)cc(O)cc1O[C@@H]1O[C@H](CO)[C@@H](O)[C@H](O)[C@H]1O,inactive,inactive,inactive
O.OCC1OC(OC2C(CO)OC(O)C(O)C2O)C(O)C(O)C1O (stereo not given),inactive,active,inactive
O=C(C[n+]1ccc(/C=N/O)cc1)N1CCCCC1,inactive,inactive,inactive

SMILES,cytotoxicity call (HSkMC),cytotoxicity call (HepG2),growth inhibition call (S. aureus RN4220)
Cc1noc(C)c1S(=O)(=O)Nc1ccc2c(c1)C(=O)N([C@@H](C)CO)C[C@@H](C)[C@H](CN(C)S(=O)(=O)c1ccc(F)cc1)O2,inactive,inactive,inactive
CO[C@@H]1CN(C)C(=O)c2ccc(NS(=O)(=O)c3cn(C)cn3)cc2OC[C@H](C)N(CCC(F)(F)F)C[C@H]1C,inactive,inactive,inactive
C[C@@H]1CN([C@H](C)CO)C(=O)c2cc(NC(=O)Nc3ccc(C(F)(F)F)cc3)ccc2O[C@@H](C)CCCCO[C@H]1CN(C)S(=O)(=O)c1ccccc1,inactive,inactive,inactive
C[C@@H]1CN([C@H](C)CO)C(=O)c2cc(NC(=O)C3CC3)ccc2O[C@@H]1CN(C)Cc1ccc(-c2ccccc2)cc1,inactive,inactive,inactive
CCS(=O)(=O)N1CC[C@]2(CC1)CN([C@H](CO)c1[nH]c3cc(ccc3c12)OC)S(=O)(=O)c1cccc(c1)OC,inactive,inactive,inactive
Cc1noc(C)c1NC(=O)Nc1cccc2c1O[C@@H](CN(C)Cc1ccc(-c3ccccc3)cc1)[C@H](C)CN([C@@H](C)CO)C2=O,inactive,inactive,inactive
C[C@@H]1CN([C@H](C)CO)C(=O)CCCn2cc(nn2)CO[C@@H]1CN(C)Cc1ccc2c(c1)OCCN2C,inactive,inactive,inactive
NC[C@H]1CC[C@H](C(=O)N2CCC(c3ccncc3)CC2)CC1,inactive,inactive,inactive
CN1C(=N)NC(=O)/C1=C/c1cccnc1,inactive,inactive,inactive
CC(C)NC(=O)N(C)C[C@@H]1OCCCC[C@@H](C)Oc2ccc(NC(=O)Nc3ccccc3)cc2C(=O)N([C@@H](C)CO)C[C@@H]1C,inactive,inactive,inactive
C[C@@H]1CN([C@@H](C)CO)C(=O)Cc2cc(NS(C)(=O)=O)ccc2O[C@@H]1CN(C)C(=O)Nc1ccc(C(F)(F)F)cc1,inactive,inactive,inactive
COc1ccc(-c2ccc3c(c2)O[C@@H](CN(C)CC2CCOCC2)[C@@H](C)CN([C@H](C)CO)S3(=O)=O)cc1,inactive,inactive,inactive
C[C@@H]1CN([C@@H](C)CO)C(=O)c2cc(NC(=O)Nc3ccc4c(c3)OCO4)ccc2O[C@@H](C)CCCCO[C@H]1CN(C)S(=O)(=O)c1ccccc1,inactive,inactive,inactive
O=C(Nc1ccc(F)cc1)N[C@@H]1C[C@@H]2O[C@H](CO)CC[C@@H]2O[C@@H]1CCc1ccc(-c2ccccc2)cc1,inactive,inactive,inactive
CNC(=O)CC1CCNCC1,inactive,inactive,inactive
CC(C)N1CC2(CN(Cc3ccc(-c4ccccc4)cc3)C2)Oc2c(NC(=O)c3ccncc3)cccc2C1=O,inactive,inactive,inactive
C[C@H]1CCCCO[C@H](CN(C)C(=O)CCCN(C)C)[C@@H](C)CN([C@@H](C)CO)C(=O)c2cc(N(C)C)ccc2O1,inactive,inactive,inactive
COc1cc(N2CCN(S(C)(=O)=O)CC2)nc(C)n1,inactive,inactive,inactive
C[C@@H]1CN([C@H](C)CO)C(=O)Cc2cc(NC(=O)C3CC3)ccc2O[C@@H]1CN(C)Cc1ccc(Oc2ccccc2)cc1,inactive,active,inactive
C[C@H](CO)N1C[C@H](C)[C@H](CN(C)C(=O)C2CCCCC2)OCCCC[C@H](C)Oc2ccc(NC(=O)Cc3ccccc3)cc2C1=O,inactive,inactive,inactive
C[C@@H]1CN([C@H](C)CO)C(=O)c2cc(/C=C/c3ccccc3)cnc2O[C@H]1CN(C)C(=O)C1CCOCC1,inactive,inactive,inactive
OC[C@H]1O[C@@H]2O[C@H]3[C@H](O)[C@@H](O)[C@@H](O[C@H]4[C@H](O)[C@@H](O)[C@@H](O[C@H]5[C@H](O)[C@@H](O)[C@@H](O[C@H]6[C@H](O)[C@@H](O)[C@@H](O[C@H]7[C@H](O)[C@@H](O)[C@@H](O[C@H]1[C@H](O)[C@H]2O)O[C@@H]7CO)O[C@@H]6CO)O[C@@H]5CO)O[C@@H]4CO)O[C@@H]3CO,inactive,inactive,inactive
C[C@@H]1CN([C@@H](C)CO)S(=O)(=O)c2ccc(-c3ccncc3)cc2O[C@@H]1CN(C)C(=O)c1ccc2c(c1)OCO2,inactive,inactive,inactive
COc1ccccc1CNC(=O)C[C@@H]1C[C@H]2c3cc(NC(=O)C4CCOCC4)ccc3O[C@H]2[C@@H](CO)O1,inactive,inactive,inactive
Cc1noc(C)c1S(=O)(=O)Nc1ccc2c(c1)C(=O)N([C@@H](C)CO)C[C@H](C)[C@@H](CN(C)C(=O)Nc1cccc3ccccc13)OCCCC[C@H](C)O2,inactive,inactive,inactive
C=CC(=O)NCCc1ccncc1,inactive,inactive,inactive
COc1ccc(C#Cc2ccc3c(c2)[C@]2(C(=O)N3)[C@H](C(=O)N3CCCCCCC3)[C@H]3C(=O)O[C@H](c4ccccc4)[C@H](c4ccccc4)N3[C@@H]2c2ccc(O)cc2)cc1,inactive,active,inactive
